The source of these data is PubChem BioAssay AID463173 (ICCB-Longwood Screening Facility, Harvard Medical School, 2010).

Among all 52,000 compounds or so, about 1,700 (3.3%) were called active. No stated cut-off is given here; in the data, active means survival mostly below about 52% (no sharp cut-off); inactive means mostly above about 56%. This is one part of the list.

The subject of the assay is Wild type. As to the kind of experiment: S. aureus survival, RN4220 and DeltatarO strains – OD600, teichoic acid synthesis inhibitors, primary screen (AID 463173). The conditions noted are these: S. aureus RN4220 wild type/DeltatarO growth, OD600, 18 h, active compounds read low, screened at 18.75 µg/mL (by protocol).
For the molecule `Cc1nc(N2CCCC2)c2c(C(=O)Nc3cccc(C)c3C)c(C)oc2n1`, the survival is inactive: 90%. Turning to `COc1ccc(CCNCc2c(C(=O)O)c(C)n(Cc3ccccc3C)c2C)c(OC)c1`, the survival is inactive: 91%.

Regarding `COc1cc(OC)c(NC(=O)COCc2cc(-c3cccs3)on2)cc1Cl`, the survival is inactive: 73%. Turning to `Cc1ccc(Cn2nnc3c(=O)[nH]c(C4CCN(S(=O)(=O)/C=C/c5ccccc5)CC4)nc32)cc1`, the survival was inactive: 85%. Regarding `CCOc1ccccc1N(C)C(=O)Cn1cnc2sc(C)c(S(=O)(=O)N3CCC(C)CC3)c2c1=O`, the survival was inactive: 88%.

For `CN(C)CCN(Cc1ccco1)S(=O)(=O)c1cc2c(cc1Cl)NC(=O)CO2`, the survival is inactive: 65%. The value for `COc1ccccc1CCNC(=O)CCc1c(C)c2cc3c(C)coc3c(C)c2oc1=O` was inactive: 89%; that for `N#Cc1cn(CCOc2ccccc2F)c2ccccc12` was inactive: 108%; that for `Cc1nn(CCCC(=O)Nc2ccccc2C(F)(F)F)c(=O)c2c1sc1ccccc12` was inactive: 86%. The same measure for `O=C(Cn1c(=O)n(Cc2ccco2)c(=O)c2oc3ccccc3c21)Nc1ccc(F)cc1F`: inactive: 78%. The value for `Cc1cn2c(=O)cc(COc3ccc(NC(=O)c4cccc(F)c4)cc3)nc2s1` was inactive: 122%. On to `CCC(Sc1nnc(C)n2c1cc1occc12)C(=O)Nc1ccccc1F` (stereo not drawn), for which the survival was inactive: 106%. The value for `COc1cccc(NC(=O)Nc2cc(-c3cn4cccnc4n3)ccc2C)c1` was inactive: 82%; that for `CN(C)S(=O)(=O)Nc1ccc(Cc2ccncc2)cc1` was inactive: 100%; that for `Cn1c(=O)n(C)c2cc(NS(=O)(=O)c3ccccc3)c(NCc3ccccc3)cc21` was inactive: 74%. The same measure for `O=C(NCCO)C(=O)Nc1c2c(nn1-c1ccc(F)cc1)CSC2`: inactive: 99%. As for `Cc1ccc(-c2noc(CNC(=O)c3ccc(C(C)(C)C)cc3)n2)cc1`, the survival is inactive: 89%. For the molecule `COC(=O)c1cc2oc3ccccc3c2n1CC(=O)Nc1ccc(OC)c(OC)c1OC`, the survival was inactive: 82%.

Turning to `COc1ccccc1CNC(=O)CN1C(=O)CSc2ccc(S(=O)(=O)N3CCCC3)cc21`, the survival was inactive: 94%.

As to `CC(C)Oc1ccc(CNC(=O)C2CCN(C(=O)c3sccc3-n3cccc3)CC2)cc1`, the survival is inactive: 72%. `CC(C)OCCCN(Cc1ccco1)C(=O)c1cc2c(s1)-c1ccccc1OC2`: the survival is active: 9%. The value for `CCN(CC)C(=O)Cn1cc(SCC(=O)Nc2cccc(C)c2)c2ccccc21` was inactive: 77%; that for `COCc1cc(C)n(CC(=O)Nc2ccc(NC(C)=O)cc2)c(=O)c1C#N` was inactive: 85%. In the case of `Cc1ccc2[nH]c(=O)c(CN(Cc3ccccc3)C(=O)N(C)C)cc2c1`, the survival was inactive: 103%.

As to `Cc1ccc(S(=O)(=O)NCC2COc3ccccc3O2)cc1` (stereo not drawn), the survival is inactive: 126%. The value for `CC1=C(C#N)C(NC(=O)c2cccc(Cl)c2)(C(F)(F)F)C(=O)N1` (stereo not drawn) was inactive: 78%; that for `COC(=O)C1=C(C)NC(=O)CC1c1ccccc1` (stereo not drawn) was inactive: 95%.

Take `COc1ccccc1-c1noc(-c2ccc(N3CCN(c4ccccc4)CC3)c([N+](=O)[O-])c2)n1`: the survival is inactive: 87%. `COc1ccc(N2CCN(c3cc(C)nc4nc(-c5ccc(C)cc5)nn34)CC2)cc1`: the survival was inactive: 75%. The value for `Cc1cccc(C(=O)N2CCc3cc(CNC(=O)CCc4ccccc4)ccc32)c1` was inactive: 75%; that for `Cc1ccc(Cl)cc1NC(=O)N1CCN(C)c2ncccc21` was inactive: 73%; that for `Cc1ccc(S(=O)(=O)c2cn(C)c3cc(N4CCN(C)CC4)c(F)cc3c2=O)cc1` was inactive: 66%.

For the molecule `CCCc1c(O)nc(SCC(=O)N(CC)CC)[nH]c1=O`, the survival was inactive: 105%.

Consider `CCOCCOC(=O)c1ccc(NC(=O)/C=C/c2ccc(OC)c(OC)c2)cc1`, for which the survival is inactive: 137%.

On to `O=C(CSc1ncc2c(n1)-c1ccccc1N(Cc1ccc(F)cc1)S2(=O)=O)c1ccc(Cl)cc1`, for which the survival was inactive: 72%. The value for `CCc1cc2c(cc3c(=O)n(CC(=O)N4CCN(c5cc(Cl)ccc5C)CC4)ncn32)s1` was inactive: 75%; that for `COc1ccccc1C(=O)Nc1cc2c(cc1N1CCCCC1)n(C)c(=O)n2C` was inactive: 88%. For `COc1ccc(Nc2c(-c3cc(Br)ccc3O)nc3ncccn23)cc1OC`, the survival was inactive: 67%. The same measure for `Cc1cccc(C)c1-n1ncc(C(=O)Nc2ccc3c(c2)OCCO3)c1C1CCN(C(=O)OC(C)(C)C)CC1`: inactive: 70%; for `Cc1ccc(NCc2cccn2-c2nnc(N3CCC(C(=O)NCc4ccc(OC(C)C)cc4)CC3)s2)cc1`: inactive: 73%; for `COc1ccccc1N1CCN(S(=O)(=O)c2c(C)sc3ncn(CC(=O)N(C)c4ccc(C(C)C)cc4)c(=O)c23)CC1`: inactive: 77%. The same measure for `CCC1(C(=O)OC)NC(c2ccc(OC)cc2)C2C(=O)N(C)C(=O)C21` (stereo not drawn): inactive: 111%; for `CNS(=O)(=O)c1ccc(OC)c(-c2nnc3c4ccccc4c(C)nn23)c1`: inactive: 82%; for `COc1cccc(OC(=O)CSc2nnc(-c3ccccc3OC)o2)c1`: inactive: 88%.

As to `O=C(CN1C(=O)CSC1=O)c1ccccc1`, the survival is inactive: 111%.

For the molecule `CCOc1ccc(NS(=O)(=O)c2ccc3[nH]cc(C(=O)NCc4ccco4)c(=O)c3c2)cc1`, the survival is inactive: 80%. The same measure for `O=c1cc(CN2CCN(S(=O)(=O)c3ccc(Cl)cc3)CC2)nc2sc(-c3ccccc3F)nn12`: inactive: 126%. The same measure for `O=S(=O)(NCCc1ccccc1)c1ccc(N2CCCCS2(=O)=O)cc1`: inactive: 64%; for `O=C(CSc1nc(-c2ccc(Cl)cc2)nc2c1Cc1ccccc1O2)N1CCCCC1`: inactive: 82%. With `Cc1ccc(N2C(=O)CS(=O)(=O)C23C(=O)N(Cc2cccc(F)c2)c2ccccc23)cc1Cl` (stereo not drawn), the survival is inactive: 75%. The value for `COc1ccc(C(=O)O)cc1Nc1nc2ccc(C)cc2n2cnnc12` was inactive: 117%; that for `Cc1cccc(NC(=O)c2sc3nc4n(c(=O)c3c2C)N=C(c2ccc(F)cc2)CS4)c1C` was inactive: 95%. As for `Cc1ccc(C)c(N2CCN(c3nc4ccccc4c4nc(CCn5nc(C)cc5C)nn34)CC2)c1`, the survival is inactive: 82%. On to `COc1ccc(Cl)cc1NC(=O)c1cc2nc(-c3ccc4c(c3)OCO4)cc(C(F)(F)F)n2n1`, for which the survival was inactive: 65%. As for `COCCN(C(=O)C1CC1)c1nnc(-c2cc(OC)c(OC)c(OC)c2)s1`, the survival is inactive: 97%. With `COC(=O)Cn1c(=O)c2c(nc3n2CCN3c2cccc(C)c2)n(C)c1=O`, the survival is inactive: 90%.

As to `CCCCc1ccc(NC(=O)c2cc3c(=O)n4ccccc4nc3n2C)cc1`, the survival was inactive: 95%. Consider `COc1ccc2nc3sc(C(=O)Nc4ccccc4F)cc3cc2c1`, for which the survival is inactive: 90%. Turning to `COc1ccc(NC(=O)CCCc2nc(-c3ccco3)no2)c(OC)c1`, the survival is inactive: 113%. The same measure for `CCN(CC)S(=O)(=O)c1ccc(NC(=O)[C@H](CSCc2ccccc2)N2Cc3ccccc3C2=O)cc1`: inactive: 130%.

Take `O=C(c1ccco1)N(Cc1cccnc1)c1nc2ccc(F)cc2s1`: the survival is inactive: 115%.

For `COc1ccc(NC(=O)c2ccccc2NC(=O)c2ccco2)cc1`, the survival is inactive: 110%.

Regarding `Cc1cc(C)cc(NC(=O)C2CCCN(c3nnc(C)c4c(C)n(-c5ccccc5)nc34)C2)c1` (stereo not drawn), the survival is inactive: 72%. The value for `CCOC(=O)Cn1c(=O)oc2cc(S(=O)(=O)N3CCN(c4ccc(Cl)cc4)CC3)ccc21` was inactive: 72%; that for `CCc1ccc(C2C(C(=O)Nc3ccccc3)=C(C)Nc3c(C(=O)Nc4ccc(C)cc4)cnn32)cc1` (stereo not drawn) was active: -1%; that for `Cc1ccc(S(=O)(=O)NCC(c2ccc(N(C)C)cc2)N2CCCC2)cc1` (stereo not drawn) was inactive: 88%. Consider `COc1cc(OC)cc(-c2nc3n(n2)C(c2ccccc2F)C(C(=O)Nc2cccnc2)=C(C)N3)c1` (stereo not drawn), for which the survival is inactive: 70%.

As for `CCc1ccc(S(=O)(=O)c2cn(C)c3cc(N4CCCCC4C)c(F)cc3c2=O)cc1` (stereo not drawn), the survival is inactive: 125%.

Turning to `CCc1c(C)c2ccc3c(c2oc1=O)CN(Cc1ccccc1)CO3`, the survival was inactive: 95%. The same measure for `COc1ccc(OCC(=O)Nc2nnc(S(=O)(=O)N3CCCCCC3)s2)cc1`: inactive: 85%. The same measure for `CCOC(=O)C1CCN(C(c2ccccc2)c2c(O)cc(C)n(Cc3ccco3)c2=O)CC1` (stereo not drawn): inactive: 60%; for `O=C(Nc1ccc(C(F)(F)F)cc1)C1CCC(CNS(=O)(=O)c2cccc3nsnc23)CC1` (stereo not drawn): inactive: 74%; for `CCOc1ccc(NC(=O)Cn2c(Nc3ccc(OCC)cc3)nc3c2c(=O)[nH]c(=O)n3C)cc1`: inactive: 112%.

`Cc1ccc(-n2c(CCC(=O)O)ccc2-c2cccs2)cc1C`: the survival is inactive: 64%. The same measure for `O=C(c1ccc(Cl)cc1)N1CCCC(c2nc(-c3ccc(Cl)cc3)no2)C1` (stereo not drawn): inactive: 104%. The same measure for `CC1CCN(CC(=O)O)CC1`: inactive: 100%; for `COc1cc(C2CC(=O)Nc3c2c(=O)[nH]c2nc4ccccc4n32)ccc1O` (stereo not drawn): inactive: 142%; for `CC1(C)C(=O)N(CC(=O)Nc2ccc(Cl)cc2)c2ccccc21`: inactive: 59%. In the case of `CC(C)CNC(=O)c1cccc(Cl)c1`, the survival is inactive: 113%. The same measure for `CCC(C)NC(=O)c1cc2c(Cl)nc3ccc(C)cc3c2s1` (stereo not drawn): inactive: 73%. The same measure for `Cc1ccc2c(c1)cc(C(=O)Nc1ccccc1C)n2C`: inactive: 86%; for `CCc1nn2c(=O)cc(COC(=O)c3ccccc3NC(=O)COc3ccccc3C)nc2s1`: inactive: 59%; for `COc1ccc(-c2nn3c(-c4ccc(OC)cc4)nnc3c3ccccc23)cc1`: inactive: 73%. On to `CCC(Cc1ccccc1)NC(=O)c1ccc2nc(N3CCC(C)CC3)sc2c1` (stereo not drawn), for which the survival was inactive: 70%. With `Cc1ccc(NC(=O)Cn2c(=O)n(Cc3ccccc3)c(=O)c3c(C)c(C)sc32)c(C)c1`, the survival is inactive: 90%. Consider `CC1CCCN(c2csc3ccc(F)cc3c2=O)C1` (stereo not drawn), for which the survival was inactive: 73%. The value for `COc1ccc(OC(=O)c2nc(SCc3ccc(C)cc3)ncc2Cl)cc1` was inactive: 86%. The same measure for `CCc1ccccc1NC(=O)C1=CC(c2ccc(OC)c(OC)c2)=NS(=O)(=O)N1C`: inactive: 85%.
